Results from PubChem BioAssay AID504832 (National Center for Advancing Translational Sciences (NCATS), 2011).
Several values for one entry are separate records, joined by “and”; a condition that tells them apart may be missing. Equal entries are not always repeated. Among all 310,000 compounds or so, about 18,000 (5.8%) were called active. This list was built around the results that the source calls inconclusive (neither active nor inactive); the mix of calls is not that of the screen. Calls follow the shape of the dose curve; as a rule, active = well fitted inhibition curve with a large enough effect; inconclusive = small, poorly fitted or top-dose-only effect, or another doubt; inactive = no such curve, though single readings can be large or run the other way. Potencies of inconclusive entries are left out as doubtful fits.

Assay: Primary qHTS for delayed death inhibitors of the malarial parasite plastid, 48 hour incubation
Conditions: P. falciparum luciferase growth in erythrocytes; series mostly up to 28.7 µM
Outline: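 Luminescence readout; reporter = integrated firefly luciferase in P. falciparum. RBC culture at 2% hematocrit, 0.1% parasitemia final, 37 C/5% CO2; decreased signal taken as growth inhibition.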
Potency is read from the fitted curve at half-maximal effect; tags tell the direction and shape of the fitted curve.

Row | SMILES | Potency
1 | O=C(Nc1cccc([N+](=O)[O-])c1)c1ccc2c(c1)OCCO2 | inactive
2 | O=C(NCCc1ccc([N+](=O)[O-])cc1)c1ccccc1 | inconclusive [inhibitor, single point]
3 | CCCN(CCC)CCCNC(=O)c1cc2c(=O)[nH]c3ccccc3c2s1 | inconclusive [inhibitor, single point]
4 | COc1ccc(/C=C/C(=O)NCc2c(C)nn(C)c2C)cc1COc1ccc(Br)cc1 | inconclusive [inhibitor, full curve]
5 | O=C(NCCc1ccc(C(F)(F)F)cc1)C1CCC(=O)N(CCc2cccc(F)c2)C1 (configuration not stated) | inactive
6 | COc1ccc(Cl)cc1C(=O)Nc1ccc2nc3n(c(=O)c2c1)CCCC3 | inconclusive [inhibitor, full curve, poor fit]
7 | CCCCOc1cccc(C(=O)NC(=S)Nc2cccc(C(F)(F)F)c2)c1 | inactive
8 | Cc1ccc(CN2C(=O)N/C(=C/c3ccc(-c4ccc(C(=O)O)cc4)o3)C2=O)cc1 | inactive
9 | Cc1ccc(C(=O)Nc2cccc(-c3ccc(N4CCOCC4)nn3)c2)cc1 | inconclusive [inhibitor, single point]
10 | Cc1ccc(NS(=O)(=O)c2ccc(N/N=C/c3ccccc3OCC(=O)O)c([N+](=O)[O-])c2)c(C)c1 | active: 11.7 µM
11 | CCCN(C(=O)CSCc1ccc(Cl)cc1)c1c(N)n(Cc2ccccc2)c(=O)[nH]c1=O | inconclusive [inhibitor, single point]
12 | O=C(O)c1nn(-c2ccccc2)ccc1=O | inactive
13 | CC1CCCN(Cc2nc3c(c(=O)n(C)c(=O)n3C)n2CCCc2ccccc2)C1 (configuration not stated) | inconclusive [inhibitor, single point]
14 | O=C(CCCCn1c(=O)c2ccccc2n(CC(=O)Nc2ccccc2)c1=O)NCc1ccco1 | inconclusive [inhibitor, single point]
15 | CO/C([O-])=N/c1c[n+](-c2ccc(C)cc2)no1 | inactive
16 | CSC(=NC#N)N1CCN(c2c(C)cccc2C)CC1 | inconclusive [inhibitor, single point]
17 | CC(C)=NOc1cc(NC(=O)CCl)cc([N+](=O)[O-])c1 | inconclusive [inhibitor, single point]
18 | O=S(=O)(CCSc1nc2ccccc2o1)c1nc2ccccc2s1 | active: 13.1 µM
19 | COc1ccc(CN2CCCC(N3CCN(c4cccc(Cl)c4)CC3)C2)cc1OC (configuration not stated) | inconclusive [inhibitor, partial curve]
20 | CCn1c(SCC(=O)Nc2cc(OC)ccc2OC)nnc1C1CCCCC1 | inactive
21 | Cc1ccnc(SCCn2c(N3CC(C)OC(C)C3)nc3c2c(=O)n(C)c(=O)n3C)n1 (configuration not stated) | inconclusive [inhibitor, single point]
22 | CC1(C)C(C=C(Cl)Cl)C1C(=O)N1CCN(c2ccccc2)CC1 (configuration not stated) | inconclusive [inhibitor, single point]
23 | O=C(COc1ccccc1)N(CCc1ccccc1)c1nc(-c2ccc(F)cc2)cs1 | inconclusive [inhibitor, single point]
24 | CCC1(c2ccc(F)cc2)NC(=O)N(CC(=O)NCc2ccc(C)cc2)C1=O (configuration not stated) | inconclusive [inhibitor, single point]

Row | SMILES | Potency
25 | COc1cc(CN(C2CCCCC2)S(=O)(=O)c2ccc(S(=O)(=O)N(C)C3CCCCC3)cc2)cc(OC)c1OC | inconclusive [inhibitor, partial curve, poor fit]
26 | COc1ccc(-c2csc(-n3cccn3)n2)cc1 | inactive
27 | O=C(C1CCN(Cc2nc(-c3ccc(Cl)cc3)no2)CC1)N1CCOCC1 | inactive
28 | CN(CCOc1ccc(Cl)cc1)C(=O)Cc1ccc(S(=O)(=O)N2CCOCC2)s1 | inconclusive [inhibitor, partial curve, poor fit]
29 | COC(=O)c1sccc1S(=O)(=O)NCc1ccc(S(N)(=O)=O)cc1 | inactive
30 | Oc1ccccc1CNc1nc2ccccc2n1CCN1CCCCC1 | active: 2.94 µM
31 | Cc1c(C(=O)OCC(=O)c2c(N)n(CC(C)C)c(=O)n(C)c2=O)oc2ccccc12 | inconclusive [inhibitor, single point]
32 | Cc1cc(C)cc(C(=O)N2CC(=O)Nc3ccccc32)c1 | inconclusive [inhibitor, partial curve]
33 | Cc1ccc(CN2C3=NCCCN3c3ccccc32)cc1 | active: 11.7 µM
34 | Fc1ccc2c(c1)C(c1ccncc1)=NNC(c1ccc(Cl)cc1)=N2 | inconclusive [inhibitor, single point]
35 | Cc1ccccc1C(=O)c1cccn1CC(=O)N1CCCCC1 | inactive
36 | CCC(Cc1ccccc1)NC(=O)c1cc(S(=O)(=O)N2CCCCC2)c[nH]1 (configuration not stated) | inactive
37 | Cc1ccccc1NC(=O)Cc1nc(COC(=O)C(NC(=O)c2ccccc2C)C(C)C)cs1 (configuration not stated) | inconclusive [inhibitor, single point]
38 | Cc1ccc(C(=O)Nc2ccc(Br)cc2)cc1S(=O)(=O)Nc1ccccn1 | inactive
39 | COc1ccc(/C=N/NC(=O)CN(c2ccc(OC)cc2)S(=O)(=O)c2ccccc2)cc1 | inconclusive [inhibitor, single point]
40 | COc1ccccc1NC(=O)Nc1nn(C)c2cccc(N(C)C)c12 | inconclusive [inhibitor, single point]
41 | Cc1ccc(S(=O)(=O)Oc2ccc3ccc(O)cc3c2)cc1 | inactive
42 | O=C(CSc1nc2cc(Cl)ccc2o1)N1CCOCC1 | inactive
43 | COc1ccc(C2=NOC(C(=O)Nc3cc(Br)ccc3O)C2)cc1OC (configuration not stated) | active: 14.7 µM
44 | Cc1nc(N2CCN(C(=O)c3ccco3)CC2)c2c3c(sc2n1)CCCC3 | inconclusive [inhibitor, single point]
45 | CC(C(=O)Nc1ccc(C(N)=O)cc1)N1C(=O)c2ccccc2S1(=O)=O (configuration not stated) | inconclusive [inhibitor, single point]
46 | COc1ccc(-c2cc(=O)oc3c(C)c(OC(C)C(=O)N4C[C@H]5C[C@@H](C4)c4cccc(=O)n4C5)ccc23)cc1 (some centres not stated) | inconclusive [inhibitor, partial curve, poor fit]
47 | CN1CCC(=C2c3ccccc3Sc3ccccc32)CC1 | active: 4.26 µM
48 | Cc1ccc(/C=N/NC(=O)Cc2cccn2C)cc1 | inactive

Row | SMILES | Potency
49 | Cc1cc(C)c(NC(=S)N(CCc2ccncc2)C(C)C)c(C)c1 | active: 10.4 µM
50 | O=C(COC(=O)Cc1ccsc1)Nc1ccccc1 | inactive
51 | COC(=O)c1cc(CN2CCN(c3ccccc3)CC2)ccc1O | inactive
52 | COc1ccc(/C=N/N=C2\SC(CC(=O)O)C(=O)N2c2ccccc2)cc1 (configuration not stated) | inactive
53 | NC(=O)C1CCN(c2nc(-c3ccc(N4CCCCC4)nc3)cs2)CC1 | inconclusive [activator, partial curve]
54 | COc1ccc(C(=O)NC2CCN(C(=O)Nc3ccccc3Cl)CC2)cc1 | inconclusive [inhibitor, full curve, poor fit]
55 | O=C(C1COc2ccccc2O1)N1CCN(c2ccccc2F)CC1 (configuration not stated) | active: 11.7 µM
56 | COc1ccc(C(=O)Nc2nccs2)cc1[N+](=O)[O-] | inactive
57 | COc1ccc(CSCC(=O)Nc2ccc(S(=O)(=O)N3CCCCCC3)cc2)cc1 | inconclusive [inhibitor, partial curve]
58 | CCCn1c(N)c(N(CCOC)C(=O)CSc2cc(C)c3cccc(C)c3n2)c(=O)[nH]c1=O | inconclusive [inhibitor, single point]
59 | Cc1ccc(C(=O)NNC(=O)c2ccc(S(=O)(=O)N3CCOCC3)cc2)cc1 | inactive
60 | CCOC(=O)N1CCC(NC(=O)c2cc(-c3ccc(F)cc3)[nH]c2C)CC1 | inconclusive [inhibitor, full curve]
61 | Cc1ccc(NC(=O)COc2nsnc2N2CCOCC2)cc1Cl | inactive
62 | N#CC(C#N)=C/C(C#N)=C(/N)N1CCN(c2ccc(Cl)cc2)CC1 | inconclusive [inhibitor, full curve, poor fit]
63 | Cc1cc(=O)oc2cc(NC(=O)COc3cccc(C(F)(F)F)c3)ccc12 | inconclusive [inhibitor, single point]
64 | COCCOC(=O)c1[nH]c2c(c1C)C(=O)CC(c1ccco1)C2 (configuration not stated) | inconclusive [inhibitor, single point]
65 | Cc1ccccc1NS(=O)(=O)c1ccc(C(=O)NCC(c2ccccc2)N(C)C)cc1 (configuration not stated) | inconclusive [inhibitor, single point]
66 | CCCCNC(=S)N/N=C/c1sccc1C | inconclusive [inhibitor, partial curve, poor fit]
67 | Cc1nonc1CC(=O)NC1CCCc2c1cnn2-c1ccc(F)cc1F (configuration not stated) | inactive
68 | CCOC(=O)/C=C/C(=O)OCC(=O)Nc1c(Cl)cccc1Cl | active: 13.1 µM
69 | CC(=O)N1c2ccc(S(=O)(=O)N3CCC(C(=O)Nc4cccc(Cl)c4)CC3)cc2CC1C (configuration not stated) | inconclusive [inhibitor, partial curve, poor fit]
70 | COc1cc(C(=O)N2CCN(C/C=C/c3ccccc3)CC2)cc(OC)c1OC | inconclusive [inhibitor, partial curve]
71 | CCOC(=O)c1nn(-c2ccccc2)c(=O)c2c(N)sc(C)c12 | inconclusive [inhibitor, single point]
72 | Nc1c2ccccc2nc2ccccc12 | active: 2.39 µM and active: 2.33 µM and active: 5.22 µM
